Results as given in PubChem BioAssay AID624171 (National Center for Advancing Translational Sciences (NCATS), 2012).
The whole screen tested about 410,000 compounds, of which about 1,200 (0.29%) were called active. Inconclusive means that the source gave no clear call. Such entries were picked first, then a sample of the others. Calls follow the shape of the dose curve; as a rule, active = well fitted activation curve with a large enough effect; inconclusive = small, poorly fitted or top-dose-only effect; inactive = flat fitted curve, though single readings scatter. Potencies beside an inconclusive call are fits to weak or partial responses and may not hold up.

Assay: qHTS of Nrf2 Activators; also: nearly all actives have a fitted effect of over 65% in size
Details: AREc32 ARE-luciferase reporter (MCF7-derived line), luminescence, 24 h; series mostly up to 46.1 µM
How it was run: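 For detection, Steady-Glo was added and plates sat 30 min at RT; before that, AREc32_Fluc cells grown overnight in OPTI-MEM/5% FBS had been treated with 23 nL compound for 24 hr at 37 deg C.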
Potency is read from the fitted curve at half-maximal effect; tags tell the direction and shape of the fitted curve.

Potency, inconclusive:
COc1cc([N+](=O)[O-])ccc1N/C=C/C(=O)c1cccs1 2.51 µM [activator, partial curve, poor fit], CCc1nn(CC(=O)NCCc2ccc(Cl)cc2)c(=O)c2cccn12 20 µM [activator, single point], COc1ccc(/C=C/C(=O)C2(O)CCCCC2)cc1OC 35.5 µM [activator, single point], O=C(NCc1ccco1)NC(=O)c1csc([N+](=O)[O-])c1 7.08 µM [activator, partial curve], O=C(N/N=C\c1ccc(Cl)cc1)c1sccc1-n1cccc1 2.82 µM [activator, full curve, poor fit], Clc1ccc2nc(-c3cccc(Br)c3)c(Cc3ccsc3)n2c1 12.6 µM [activator, single point], O=C(NCCCN1CCOCC1)c1cc(-c2ccccc2)on1 17.8 µM [activator, single point], CC(OC(=O)c1ccc([N+](=O)[O-])o1)C(=O)Nc1nc(-c2ccc(F)c(F)c2)cs1 (stereo not given) 17.8 µM [activator, single point], O=C(CCNc1ccccc1)c1cccc([N+](=O)[O-])c1 31.6 µM [activator, single point], COc1ccc(C(=O)NNC(=O)c2ccc3ccccc3n2)cc1 35.5 µM [activator, single point], COCCNC(=O)/C(C#N)=C/c1nc(N(C)C)n(-c2ccc(F)cc2)c1Cl 20 µM [activator, single point], CC1CCCCN1C(=O)Cn1cc(C(=O)c2ccco2)c2ccccc21 (stereo not given) 12.6 µM [activator, partial curve], C/C=C/c1ccc(Oc2nnnn2-c2ccc(C(N)=O)cc2)c(OC)c1 17.8 µM [activator, single point]

Potency, inactive:
N#C/C(=C(\O)c1ccco1)c1ccccn1, CCn1c2c(c(=N)c3ccccc31)CCC2, Cc1ccc(NC(=O)C2CCN(S(=O)(=O)c3c(C)noc3/C=C/c3ccco3)CC2)nc1, O=C(NCc1ccco1)C1Cc2ccccc2CN1C(=O)c1ccco1 (stereo not given), COc1ccc(CNC(=O)c2cnn(-c3ccc(C)cc3)c2C2CCN(C(=O)OC(C)(C)C)CC2)cc1, C=Cc1ccc(CSc2nc(-c3ccc(Cl)cc3)nc3c2Cc2c(CO)cnc(C)c2O3)cc1

Potency, active:
Cc1csc(NC(=O)c2cc(-c3ccco3)nc3ccccc23)n1 3.98 µM
